# From paper PMC4381080
# Chains of the proteins cited; added tags and fusions are not shown. Residues count along the entry.
# UniProt O08984: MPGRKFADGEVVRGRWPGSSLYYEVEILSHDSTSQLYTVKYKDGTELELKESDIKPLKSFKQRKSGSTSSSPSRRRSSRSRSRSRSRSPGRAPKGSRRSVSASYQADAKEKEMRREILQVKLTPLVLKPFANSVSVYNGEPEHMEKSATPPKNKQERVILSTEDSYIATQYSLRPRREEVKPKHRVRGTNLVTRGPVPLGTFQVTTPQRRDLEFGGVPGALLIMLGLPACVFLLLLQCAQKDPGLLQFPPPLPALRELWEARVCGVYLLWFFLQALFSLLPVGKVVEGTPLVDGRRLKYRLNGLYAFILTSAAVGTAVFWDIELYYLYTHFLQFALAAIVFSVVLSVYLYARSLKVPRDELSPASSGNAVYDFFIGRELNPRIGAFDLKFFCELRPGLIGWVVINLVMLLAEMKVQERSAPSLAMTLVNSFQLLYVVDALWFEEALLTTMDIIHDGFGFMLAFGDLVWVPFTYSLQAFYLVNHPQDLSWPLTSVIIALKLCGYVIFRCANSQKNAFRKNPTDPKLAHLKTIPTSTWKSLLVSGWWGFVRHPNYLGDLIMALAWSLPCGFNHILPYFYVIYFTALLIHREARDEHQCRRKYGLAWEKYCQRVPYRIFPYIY
# UniProt P02545, residues 1-646: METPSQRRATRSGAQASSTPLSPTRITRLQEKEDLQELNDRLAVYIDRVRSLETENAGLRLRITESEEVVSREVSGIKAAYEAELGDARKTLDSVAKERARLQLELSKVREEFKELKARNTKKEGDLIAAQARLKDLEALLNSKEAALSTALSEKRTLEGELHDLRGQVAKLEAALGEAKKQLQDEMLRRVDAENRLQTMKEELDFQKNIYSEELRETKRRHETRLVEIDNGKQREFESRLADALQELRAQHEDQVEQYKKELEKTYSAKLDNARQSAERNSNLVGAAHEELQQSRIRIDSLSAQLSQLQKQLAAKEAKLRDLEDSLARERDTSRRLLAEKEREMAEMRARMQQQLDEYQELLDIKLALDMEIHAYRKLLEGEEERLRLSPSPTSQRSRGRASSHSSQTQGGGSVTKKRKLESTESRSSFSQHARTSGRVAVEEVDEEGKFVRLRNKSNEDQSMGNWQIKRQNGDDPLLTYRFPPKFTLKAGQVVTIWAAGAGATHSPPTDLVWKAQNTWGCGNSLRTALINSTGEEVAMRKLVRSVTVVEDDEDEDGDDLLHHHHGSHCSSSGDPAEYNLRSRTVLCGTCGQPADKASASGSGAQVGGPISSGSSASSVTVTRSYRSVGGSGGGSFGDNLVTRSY
# UniProt P48679, residues 1-647: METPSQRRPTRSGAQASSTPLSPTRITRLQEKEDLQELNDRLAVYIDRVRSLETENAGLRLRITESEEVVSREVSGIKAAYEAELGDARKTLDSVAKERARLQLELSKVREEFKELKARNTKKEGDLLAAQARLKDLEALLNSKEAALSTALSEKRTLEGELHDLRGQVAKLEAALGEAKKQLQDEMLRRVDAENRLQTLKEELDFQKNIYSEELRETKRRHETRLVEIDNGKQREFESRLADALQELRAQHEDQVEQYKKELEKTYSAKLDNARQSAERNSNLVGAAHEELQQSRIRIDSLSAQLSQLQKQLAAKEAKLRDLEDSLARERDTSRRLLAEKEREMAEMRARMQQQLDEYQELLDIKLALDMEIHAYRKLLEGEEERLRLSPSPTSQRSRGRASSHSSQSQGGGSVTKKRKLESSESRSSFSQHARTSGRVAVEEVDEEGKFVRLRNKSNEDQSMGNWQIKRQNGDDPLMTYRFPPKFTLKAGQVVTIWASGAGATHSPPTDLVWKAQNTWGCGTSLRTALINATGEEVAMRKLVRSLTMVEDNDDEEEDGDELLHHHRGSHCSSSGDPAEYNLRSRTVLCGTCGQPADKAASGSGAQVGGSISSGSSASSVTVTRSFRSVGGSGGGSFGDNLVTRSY
# UniProt P20700: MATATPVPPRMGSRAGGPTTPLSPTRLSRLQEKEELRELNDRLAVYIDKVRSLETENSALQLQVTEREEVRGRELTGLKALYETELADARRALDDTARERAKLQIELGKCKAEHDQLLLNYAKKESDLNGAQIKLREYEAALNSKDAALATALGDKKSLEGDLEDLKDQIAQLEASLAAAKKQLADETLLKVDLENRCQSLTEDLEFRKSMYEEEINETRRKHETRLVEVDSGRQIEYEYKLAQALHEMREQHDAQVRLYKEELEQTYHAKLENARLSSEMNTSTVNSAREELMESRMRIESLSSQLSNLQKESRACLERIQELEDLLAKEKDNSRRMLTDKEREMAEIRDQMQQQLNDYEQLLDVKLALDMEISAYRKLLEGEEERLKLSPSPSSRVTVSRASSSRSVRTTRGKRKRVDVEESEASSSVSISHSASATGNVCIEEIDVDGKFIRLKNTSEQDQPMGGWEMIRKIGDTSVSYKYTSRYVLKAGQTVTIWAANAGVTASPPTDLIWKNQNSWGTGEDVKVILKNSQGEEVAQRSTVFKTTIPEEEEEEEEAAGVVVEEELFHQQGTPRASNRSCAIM
# Results are given in words; binding and its absence hold for the method and conditions named. Binding seen in cells or lysates may run through a third protein. Some results given as binding are weak or reduced against the parent protein; the word gives no strength. For some of these results: Where a sequence is shown, tags or fusion partners need not be part of it.
# B1: protein-tyrosine phosphatase 1B (PTP1B), endogenous in HEK293T cells (enzyme, UniProt P18031 1-435)
# chain: MEMEKEFEQIDKSGSWAAIYQDIRHEASDFPCRVAKLPKNKNRNRYRDVSPFDHSRIKLHQEDNDYINASLIKMEEAQRSYILTQGPLPNTCGHFWEMVWEQKSRGVVMLNRVMEKGSLKCAQYWPQKEEKEMIFEDTNLKLTLISEDIKSYYTVRQLELENLTTQETREILHFHYTTWPDFGVPESPASFLNFLFKVRESGSLSPEHGPVVVHCSAGIGRSGTFCLADTCLLLMDKRKDPSSVDIKKVLLEMRKFRMGLIQTADQLRFSYLAVIEGAKFIMGDSSVQDQWKELSHEDLEPPPEHIPPPPRPPKRILEPHNGKCREFFPNHQWVKEETQEDKDCPIKEEKGSPLNAAPYGIESMSQDTEVRSRVVGGSLRGAQAASPAKGEPSLPEKDEDHALSYWKPFLVNMCVATVLTAGAYLCYRFLFNSNT
# B2: lamin B1, endogenous in Hirc-B cells (protein, UniProt P70615 1-587)
# chain: MATATPVQQRAGSRASAPATPFSPTRLSRLQEKEELRELNDRLAVYIDKVRSLETENSALQLQVTEREEVRGRELTGLKALYETELADARRALDDTARERAKLQIELGKFKAEHDQLLLNYAKKESDLSGAQIKLREYEAALNSKDAALATALGDKKSLEGDLEDLKDQIAQLEASLSAAKKQLADETLLKVDLENRCQSLTEDLEFRKNMYEEEINETRRKHETRLVEVDSGRQIEYEYKLAQALHEMREQHDAQVRLYKEELEQTYHAKLENARLSSEMNTSTVNSARGGMMESRMRIESLSSQLSNLQKDSRACLERIQELEDMLAKERDNSRRMLSDKEREMAEIRDQMQQQLNDYEQLLDVKLALDMEISAYRKLLEGEEERLKLSPSPSSRVTVSRASSSRSVRTTRGKRKRVDVEESEASSSVSISHSASATGNVCIEEIDVDGKFIRLKNTSEQDQPMGGWEMIRKIGDTSVSYKYTSRYVLKAGQTVTVWAANAGVTASPPTDLIWKNQNSWGTGEDVKVVLKNSQGEEVAQRSTVFKTTIPEEEEEEEEEPIGVPLEEERFHQQGTPRASNKSCAIM
# B3: protein-tyrosine phosphatase 1B (PTP1B), endogenous in Hirc-B cells (enzyme, UniProt P20417 1-432)
# chain: MEMEKEFEQIDKAGNWAAIYQDIRHEASDFPCRIAKLPKNKNRNRYRDVSPFDHSRIKLHQEDNDYINASLIKMEEAQRSYILTQGPLPNTCGHFWEMVWEQKSRGVVMLNRIMEKGSLKCAQYWPQKEEKEMVFDDTNLKLTLISEDVKSYYTVRQLELENLATQEAREILHFHYTTWPDFGVPESPASFLNFLFKVRESGSLSPEHGPIVVHCSAGIGRSGTFCLADTCLLLMDKRKDPSSVDIKKVLLEMRRFRMGLIQTADQLRFSYLAVIEGAKFIMGDSSVQDQWKELSHEDLEPPPEHVPPPPRPPKRTLEPHNGKCKELFSNHQWVSEESCEDEDILAREESRAPSIAVHSMSSMSQDTEVRKRMVGGGLQSAQASVPTEEELSPTEEEQKAHRPVHWKPFLVNVCMATALATGAYLCYRVCFH
# Assays:
# [1] = biological target: T1, MBP-Cav-2 (wild type, residues 1–162) (UniProt Q2IBC5); assay: pull-down; in vitro binding assay: purified MBP fusions (100 μg) prebound to amylose resin, incubated with HEK293T nuclear lysates (1 mg protein, lysis buffer A with 8M urea) at 4°C for 4 h; four washes; immunoblotting; only the target purified
# T1 sequence: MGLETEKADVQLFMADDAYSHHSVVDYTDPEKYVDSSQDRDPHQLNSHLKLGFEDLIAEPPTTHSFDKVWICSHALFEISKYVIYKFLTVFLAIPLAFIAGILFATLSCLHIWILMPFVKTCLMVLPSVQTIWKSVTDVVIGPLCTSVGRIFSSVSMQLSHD
# MBP-Δ1–70-Cav-2 = biological target: T2, MBP-Δ1–70-Cav-2 (UniProt Q2IBC5); assay: as above
# T2 sequence: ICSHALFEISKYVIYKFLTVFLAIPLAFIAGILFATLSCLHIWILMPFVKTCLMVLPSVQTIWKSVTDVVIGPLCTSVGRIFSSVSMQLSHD
# MBP-Δ1–13-Cav-2 = biological target: T3, MBP-Δ1–13-Cav-2 (UniProt Q2IBC5); assay: as above
# T3 sequence: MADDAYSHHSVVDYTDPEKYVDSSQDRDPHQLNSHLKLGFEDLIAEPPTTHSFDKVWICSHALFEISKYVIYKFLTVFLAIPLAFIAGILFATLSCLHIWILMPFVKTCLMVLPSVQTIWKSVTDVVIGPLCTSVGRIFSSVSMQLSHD
# MBP-Δ1–46-Cav-2 = biological target: T4, MBP-Δ1–46-Cav-2 (UniProt Q2IBC5); assay: as above
# T4 sequence: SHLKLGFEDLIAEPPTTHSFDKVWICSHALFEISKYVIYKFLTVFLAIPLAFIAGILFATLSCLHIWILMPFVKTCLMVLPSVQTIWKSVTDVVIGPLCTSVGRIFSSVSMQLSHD
# MBP-Δ47–86-Cav-2 = biological target: T5, MBP-Δ47–86-Cav-2 (UniProt Q2IBC5); assay: as above
# T5 sequence: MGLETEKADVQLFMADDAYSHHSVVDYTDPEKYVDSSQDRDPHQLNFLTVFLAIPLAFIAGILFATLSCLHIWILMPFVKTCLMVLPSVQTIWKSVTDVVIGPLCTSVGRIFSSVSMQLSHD
# MBP-Δ120–162-Cav-2 = biological target: T6, MBP-Δ120–162-Cav-2 (UniProt Q2IBC5); assay: as above
# T6 sequence: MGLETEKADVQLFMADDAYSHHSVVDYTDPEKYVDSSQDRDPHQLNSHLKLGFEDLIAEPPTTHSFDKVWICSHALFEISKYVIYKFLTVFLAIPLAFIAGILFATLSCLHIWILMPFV
# [2] = biological target: T7, caveolin-2 (Cav-2), endogenous in Hirc-B cells (rat (endogenous in Hirc-B)) (UniProt Q2IBC5); assay: proximity ligation; Duolink in situ PLA on fixed, permeabilized Hirc-B cells treated with or without 100 nM insulin for 30 min; pairs of primary antibodies at 4°C overnight; confocal microscopy
# T7 sequence: T1 sequence
# [3] = biological target: T8, pY19-Cav-2 (Tyr-19-phosphorylated caveolin-2), endogenous in Hirc-B cells (rat (endogenous in Hirc-B)) (UniProt Q2IBC5); assay: as above
# T8 sequence (chain, phosphotyrosine at 19): T1 sequence
# [4] = biological target: T9, emerin, endogenous in Hirc-B cells (rat (endogenous in Hirc-B)) (UniProt Q63190); assay: as above
# T9 sequence: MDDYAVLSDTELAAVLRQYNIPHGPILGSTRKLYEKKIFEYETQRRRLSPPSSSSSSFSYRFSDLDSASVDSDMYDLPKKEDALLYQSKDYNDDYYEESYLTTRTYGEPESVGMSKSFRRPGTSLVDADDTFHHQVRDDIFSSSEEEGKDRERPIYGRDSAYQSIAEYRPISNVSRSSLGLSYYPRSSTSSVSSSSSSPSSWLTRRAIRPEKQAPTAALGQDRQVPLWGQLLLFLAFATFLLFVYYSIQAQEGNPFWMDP
# [5] = biological target: T10, Cav-2-GFP (wild type), expressed in HEK293T cells (UniProt Q2IBC5); assay: co-IP; nuclear lysates (lysis buffer A with 8M urea) of Cav-2-GFP- or Δ47–86-Cav-2-GFP-expressed HEK293T cells treated with or without 100 nM insulin for 30 min; immunoprecipitated with anti-GFP antibody; immunoblotting
# T10 sequence: T1 sequence
# [6] = biological target: T11, Δ47–86-Cav-2-GFP, expressed in HEK293T cells (UniProt Q2IBC5); assay: as above
# T11 sequence: T5 sequence
# [7] = biological target: lamin B-receptor (LBR), endogenous in Hirc-B cells (rat (endogenous in Hirc-B)) (UniProt O08984); assay: proximity ligation; Duolink in situ PLA on fixed, permeabilized Hirc-B cells treated with or without 100 nM insulin for 30 min; pairs of primary antibodies at 4°C overnight; confocal microscopy
# [8] = biological target: T7, caveolin-2 (Cav-2), endogenous in Hirc-B cells (rat (endogenous in Hirc-B)); assay: co-IP; nuclear lysates (lysis buffer A with 8M urea) of siLamin A/C-transfected Hirc-B cells treated with or without 100 nM insulin for 30 min; immunoprecipitated with anti-Cav-2 antibody; immunoblotting
# [9] = biological target: T7, caveolin-2 (Cav-2), endogenous in Hirc-B cells (rat (endogenous in Hirc-B)); assay: condition: only in scramble control cells (lamin A/C not depleted); co-IP; nuclear lysates (lysis buffer A with 8M urea) of scramble control-transfected Hirc-B cells treated with or without 100 nM insulin for 30 min; immunoprecipitated with anti-Cav-2 antibody; immunoblotting
molecule,measurement,setting,value
"lamin A/C, endogenous in HEK293T cells (from UniProt P02545 1-646)",binding,[1],binds
same,binding,MBP-Δ1–70-Cav-2,no binding
same,binding,MBP-Δ1–13-Cav-2,binds
same,binding,MBP-Δ1–46-Cav-2,binds
same,binding,MBP-Δ47–86-Cav-2,no binding
same,binding,MBP-Δ120–162-Cav-2,binds
"lamin A/C, endogenous in Hirc-B cells (from UniProt P48679 1-647)",binding,[2],binds
same,binding,[3],binds
same,binding,[4],binds
"lamin B1, endogenous in HEK293T cells (from UniProt P20700 1-586)",binding,[1],no binding
B1,binding,[5],no binding
same,binding,[6],binds
B2,binding,[2],no binding
same,binding,[7],binds
B3,binding,[8],binds
same,binding,[9],no binding
